These results are taken from ChEMBL document CHEMBL4888484, “Replenishing the malaria drug discovery pipeline: Screening and hit evaluation of the MMV Hit Generation Library 1 (HGL1) against asexual blood stage Plasmodium falciparum ,using a nano luciferase reporter read-out” (2022).

Usually % Inhibition stands for the relative decrease from the control value, in per cent.

Structures are written as SMILES. About 540 (0.36%) of roughly 150,000 compounds showed an effect of 50% or more. The list shows a part of the results.

For this test, the system named is Plasmodium falciparum. In words: Primary screen in NF54 nanoGlo assay, in single point, at 2uM, 72h; a lower Z score goes with more inhibition. Particulars: timepoint 72 hour. The format is functional, Erythrocyte.
Consider `COc1cc(CNC(C)COC2CCOC2)ccc1F` (stereo unspecified), for which the “% Inhibition” value is on record as -12% and the Z score came out at 1.57.
The like results for `N=C(N)Nc1ccc(Br)cc1` were, in that order, 8% and -1.37.
As for `Cc1[nH]ncc1C(=O)NC1CC(=O)N(C2CC2c2ccccc2)C1` (stereo unspecified), the “% Inhibition” value is listed as -10% and the Z score is reported as 1.96.
The like results for `C[C@H](NCc1c(Br)c2ccccc2n1C)c1cnn(C)c1` were, in that order, -18% and 2.46.
The like results for `CN(C)S(=O)(=O)N1CCC(OCc2noc([C@@H]3CCCO3)n2)CC1` were, in that order, -1% and 0.08.
For `O=C(Cc1coc2ccccc12)N1CCOC[C@@H]1CCO`, the “% Inhibition” value is -10% and the Z score amounted to 1.71.
As for `Cc1ccc(Nc2c(-c3ccc(N4CCOCC4)cc3)nc3c(C)cccn23)cc1`, the “% Inhibition” value came to 18% and the Z score is recorded as -1.78.
Taken in the same sequence, the figures for `C=CCNC(=O)NCc1cccc(Br)c1OC` were 0% and 0.03.
The like results for `O=C(Nc1ccccc1F)C1CN(S(=O)(=O)C2CC2)C1` were, in that order, -9% and 1.41.
As for `CN(C)C(=O)CO[C@H]1CCOC[C@H]1NC(=O)c1ccc(N(C)C)cc1`, the “% Inhibition” value is given as 8% and the Z score is -1.15.
Taken in the same sequence, the figures for `CC(=O)N(C)c1ccc(NC(=O)[C@H](C)c2cnn(C)c2)cn1` were -7% and 0.95.
The like results for `CC(C)n1ccc(-c2nnc(NC(=O)c3cc(Cl)sc3Cl)o2)n1` were, in that order, -7% and 1.07.
Taken in the same sequence, the figures for `CCc1nc(CN[C@@H](C)c2ccc(-n3cccn3)cc2)no1` were -13% and 1.71.
Consider `O=S(=O)(NCCOCC(F)(F)F)c1cc(F)c(F)c(F)c1`, for which the “% Inhibition” value is listed as -7% and the Z score came out at 1.09.
The like results for `CC(C)(O)Cn1nc(CC(N)=O)nc1-c1cc2c([nH]c1=O)CCCC2` were, in that order, -10% and 1.42.
In the case of `COc1ccc(OCC=CCN2CCC[C@H](C)C2)cc1`, the “% Inhibition” value is recorded as 14% and the Z score is -2.51.
Taken in the same sequence, the figures for `CC(C)N(C[C@H]1COc2ccccc2O1)C(=O)c1cc2n(n1)CCCNC2` were 20% and -2.52.
The like results for `Cc1c(-c2noc(C(=O)N3CCC(Cc4ccccc4)CC3)n2)oc2c(C)cccc12` were, in that order, -7% and 0.89.
Regarding `NC(=O)CC1COCCN1C(=O)C1CC12CCOc1ccccc12` (stereo unspecified), the “% Inhibition” value was found to be 16% and the Z score is recorded as -1.97.
Consider `COc1cccc(C2CC2CNC(C)=O)c1` (stereo unspecified), for which the “% Inhibition” value was -12% and the Z score was 1.55.
In the case of `CC[C@]1(CO)CCCN(Cc2nc(-c3ccccc3)cs2)C1`, the “% Inhibition” value is listed as -1% and the Z score worked out at 0.15.
Taken in the same sequence, the figures for `CCN(CCOc1cccc(Cl)c1)C(=O)[C@@H](C)Cn1cncn1` were -8% and 1.51.
For `CC(NC(=O)N(C)Cc1nc2ccccc2c(=O)[nH]1)C1CCCO1` (stereo unspecified), the “% Inhibition” value was -3% and the Z score amounted to 0.64.
Taken in the same sequence, the figures for `Cc1cc(N[C@H]2CCCCNC2=O)n2nc(C)cc2n1` were -3% and 0.31.
Consider `Cc1c(NC(=O)c2ccco2)c(=O)n(-c2ccccc2)n1C`, for which the “% Inhibition” value is listed as -10% and the Z score was 1.04.
Taken in the same sequence, the figures for `CC[C@H](NC(=O)c1nnc2n1CCCC2)c1cc(C)ccn1` were -2% and 0.39.
On to `N#Cc1ccccc1CN1C(=O)NC2(Cc3ccccc3C2)C1=O`, for which the “% Inhibition” value was -3% and the Z score stood at 0.48.
In the case of `CCCn1nc(-c2ccccc2OC)cc1C(=O)NCC1CC1`, the “% Inhibition” value is recorded as -12% and the Z score turned out to be 1.56.
Taken in the same sequence, the figures for `COCCS(=O)(=O)NC(=O)C1CC12CCc1ccccc12` (stereo unspecified) were -9% and 1.62.
The like results for `CN(Cc1ccc(-n2cccn2)cc1)C(=O)c1ccc(C#N)nc1` were, in that order, -9% and 0.96.
Regarding `O=S(=O)(CCC1CCCC1)N1CCO[C@H](c2nccs2)C1`, the “% Inhibition” value was -12% and the Z score amounted to 0.99.
For the compound `CCc1noc(COCC(=O)N2c3ccccc3CC2(C)C)n1`, the “% Inhibition” value was found to be 2% and the Z score was -0.23.
Taken in the same sequence, the figures for `Cc1ccc(Cl)cc1N1CCN(C(=O)c2ccc(CS(=O)(=O)c3ccc(Br)cc3)o2)CC1` were -16% and 2.05.
Regarding `COc1ccc(NC(=O)C(=O)N[C@@H](C)c2ccccc2)cc1N1CCCCS1(=O)=O`, the “% Inhibition” value is -8% and the Z score amounted to 1.02.
Turning to `CC1(CNC(=O)CC(=O)NCC(F)(F)F)CCCCCC1`, the “% Inhibition” value is -2% and the Z score was 0.44.
For the compound `CCc1nn(C)c(Cl)c1CN1CCCn2nc(CO)cc2C1`, the “% Inhibition” value amounted to 3% and the Z score is -0.51.
The like results for `C[C@H]1[C@@H](NC(=O)c2c[nH]c(=O)c(Br)c2)CCS1(=O)=O` were, in that order, 6% and -1.13.
The like results for `Cc1noc(Cn2cnc3ccccc3c2=O)n1` were, in that order, 11% and -1.98.
Turning to `CCCc1cc(NC(=O)C2(OCC)CCCC2)n[nH]1`, the “% Inhibition” value is given as 5% and the Z score is -0.78.
Regarding `Cc1nn(C(F)F)cc1-c1cccc(C(=O)NCCn2nc(C)c(C)c2C)c1`, the “% Inhibition” value is reported as 9% and the Z score was -1.71.
Taken in the same sequence, the figures for `CN(C(=O)Cn1nnc2ccccc2c1=O)C1CCCCCCC1` were -3% and 0.26.
The like results for `Cc1nc(C(=O)Nc2ccccc2Oc2ccccc2)co1` were, in that order, 1% and -0.17.
The like results for `Cc1nc(CN(C(=O)[C@H](C)n2cncn2)c2ccc(F)cc2)cs1` were, in that order, -4% and 0.34.
